To fix the notation:
B1: PhoQ; a variant is named by its letters at X, in order, P23837 (parent)
chain: MKKLLRLFFPLSLRVRFLLATAAVVLVLSLAYGMVALIGYSVSFDKTTFRLLRGESNLFYTLAKWENNKLHVELPENIDKQSPTMTLIYDENGQLLWAQRDVPWLMKMIQPDWLKSNGFHEIEADVNDTSLLLSGDHSIQQQLQEVREDDDDAEMTHSVAVNVYPATSRMPKLTIVVVDTIPVELKSSYMVWSWFIYVLSANLLLVIPLLWVAAWWSLRPIEALAKEVRELEEHNRELLNPATTRELTSLVRNLNRLLKSERERYDKYRTTLTDLTHSLKTPLXXLQXXLRSLRSEKMSVSDAEPVMLEQISRISQQIGYYLHRASMRGGTLLSRELHPVAPLLDNLTSALNKVYQRKGVNISLDISPEISFVGEQNDFVEVMGNVLDNACKYCLEFVEISARQTDEHLYIVVEDDGPGIPLSKREVIFDRGQRVDTLRPGQGVGLAVAREITEQYEGKIVAGESMLGGARMEVIFGRQHSAPKDE

The other results are listed elsewhere or left out.

The test covers variants of B1. Briefly: enrichment ratio after two sorts for PhoP signalling (ratio (wild type AVST 3.29)); higher = more functional. The settings on record: with PhoP (E. coli).
Regarding PMNF, the enrichment ratio is ≤ 0.25.

As to QYPV, the enrichment ratio is ≤ 0.25.

Turning to EPYT, the enrichment ratio is ≤ 0.25.

For LWIL, the enrichment ratio was ≤ 0.25.

For the variant TWCM, the enrichment ratio was ≤ 0.25.

For the variant FKML, the enrichment ratio was ≤ 0.25.

NDQD: the enrichment ratio is ≤ 0.25.

With KQLH, the enrichment ratio is ≤ 0.25.

As for ARCF, the enrichment ratio is ≤ 0.25.

In the case of PSMG, the enrichment ratio was ≤ 0.25.

In the case of SRYR, the enrichment ratio is ≤ 0.25.

On to WLSD, for which the enrichment ratio was ≤ 0.25.

For the variant HRNT, the enrichment ratio was ≤ 0.25.

Regarding SVLS, the enrichment ratio is 4.64.

With PFVR, the enrichment ratio is ≤ 0.25.

MPIM: the enrichment ratio is ≤ 0.25.

As for GKIS, the enrichment ratio is ≤ 0.25.

Turning to MNTM, the enrichment ratio was determined as 18.9.

Consider WWTR, for which the enrichment ratio was ≤ 0.25.

In the case of TNCI, the enrichment ratio was ≤ 0.25.

As to KYSC, the enrichment ratio was ≤ 0.25.

Turning to MEAS, the enrichment ratio worked out at 3.94.

For the variant MAHS, the enrichment ratio is ≤ 0.25.

Regarding APHK, the enrichment ratio was ≤ 0.25.

With WFKC, the enrichment ratio was ≤ 0.25.

In the case of PAKN, the enrichment ratio is ≤ 0.25.

On to QICK, for which the enrichment ratio is ≤ 0.25.

With MHGE, the enrichment ratio was ≤ 0.25.

As for VKCN, the enrichment ratio was ≤ 0.25.

Consider GNED, for which the enrichment ratio is ≤ 0.25.

As to WCMP, the enrichment ratio was ≤ 0.25.

On to WQSQ, for which the enrichment ratio is ≤ 0.25.

For the variant GPLG, the enrichment ratio was ≤ 0.25.

As for WFRF, the enrichment ratio was ≤ 0.25.

Regarding QTKR, the enrichment ratio is ≤ 0.25.

As to TGDR, the enrichment ratio came out at 0.31.

For FIDT, the enrichment ratio was ≤ 0.25.

For QDYT, the enrichment ratio was ≤ 0.25.

KNIV: the enrichment ratio is ≤ 0.25.

With SWAA, the enrichment ratio is ≤ 0.25.

WYDN: the enrichment ratio was ≤ 0.25.

Take GAWL: the enrichment ratio is ≤ 0.25.

As for HKSC, the enrichment ratio is ≤ 0.25.

On to DQNG, for which the enrichment ratio is ≤ 0.25.

With FTCR, the enrichment ratio is ≤ 0.25.

As to AEAW, the enrichment ratio was ≤ 0.25.

GPRY: the enrichment ratio is ≤ 0.25.

In the case of KSTW, the enrichment ratio is ≤ 0.25.

In the case of NREV, the enrichment ratio is ≤ 0.25.

As to ACAQ, the enrichment ratio is ≤ 0.25.

For the variant DNHA, the enrichment ratio was ≤ 0.25.

In the case of PQSP, the enrichment ratio is ≤ 0.25.

On to TRLK, for which the enrichment ratio is ≤ 0.25.

In the case of FEIR, the enrichment ratio is ≤ 0.25.

TYID: the enrichment ratio was ≤ 0.25.

As to WNMR, the enrichment ratio is ≤ 0.25.

LGPW: the enrichment ratio was ≤ 0.25.

For the variant QDMR, the enrichment ratio is ≤ 0.25.

With WRGM, the enrichment ratio is ≤ 0.25.

Take NTYQ: the enrichment ratio was ≤ 0.25.

As for YHMR, the enrichment ratio was ≤ 0.25.

Turning to HQWN, the enrichment ratio was ≤ 0.25.

Take IFAS: the enrichment ratio is ≤ 0.25.

Consider CCSS, for which the enrichment ratio is ≤ 0.25.

For the variant NDIT, the enrichment ratio is ≤ 0.25.

In the case of NVNH, the enrichment ratio was ≤ 0.25.

Regarding ERSN, the enrichment ratio is ≤ 0.25.

For GDIM, the enrichment ratio was 10.5.

Turning to SSCV, the enrichment ratio came out at 18.4.

Regarding NTPE, the enrichment ratio was ≤ 0.25.

On to KIQR, for which the enrichment ratio is ≤ 0.25.

For LSLG, the enrichment ratio was 1.47.

With YLLS, the enrichment ratio was 1.31.

Turning to ANKF, the enrichment ratio is ≤ 0.25.

ASHE: the enrichment ratio was ≤ 0.25.

With DIID, the enrichment ratio is ≤ 0.25.

As for GPDL, the enrichment ratio was ≤ 0.25.

FAYV: the enrichment ratio is ≤ 0.25.

Regarding QMLW, the enrichment ratio was ≤ 0.25.

Take MYCP: the enrichment ratio was ≤ 0.25.

As for PHAC, the enrichment ratio is ≤ 0.25.

For the variant ICDM, the enrichment ratio is ≤ 0.25.

LKNH: the enrichment ratio was ≤ 0.25.

Take EHQD: the enrichment ratio was ≤ 0.25.

(Values after a collection of fitness landscapes (doi:10.1126/science.1257360).)
